# In the supplement of paper PMC8728848:
# The list shows a part of the results.
# B1: PpFlo2 (Pichia pastoris) (protein)
# chain: MGSSHHHHHHSSGLVPRGSHMDDSGNGDNSDTAYGCDITTNAVDGFDATIYQYNANDLRLIRDPTFMSTGYLGRNVLNKISGVTVPGFNIWNPSSRTATVYGVKNVNYYNMVLELKGYFKADVSGDYKLTLSHIDDSSMLFFGKETAFKCCDAGSIPLNEAPTDYSLFTIKPSNQVNSEVISATQYLEAGKYYPVRIVFVNALERARFDFKLTIPSGAVLDDFQNYIYQFGDLDENSCHE
# Assays:
# Experiment in all cases: glycan array binding signal (z-score within array); higher = stronger binding
# Conditions in all cases: glycan notation: IUPAC condensed, linker removed
# [1] = target: Gal3S(b1-4)[Fuc(a1-3)]GlcNAc6S
# How it was run: (§1)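 Arrays were curated from the Consortium for Functional Glycomics database, 3228 in total, and kept only where the protein sequence was available. Binding is expressed as a within-array Z-score. This score was averaged across arrays of the same protein sequence at different concentrations or buffers and across linkers, and negative values can be read as non-binding.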
# [2] = target: Gal3S4S(b1-4)GlcNAc
# How it was run: as §1
# [3] = target: Gal3S6S(b1-4)GlcNAc
# How it was run: as §1
# [4] = target: Gal3S6S(b1-4)GlcNAc6S
# How it was run: as §1
# [5] = target: Gal4S(b1-4)GlcNAc
# How it was run: as §1
# [6] = target: Gal4S6S(b1-4)GlcNAc
# How it was run: as §1
# [7] = target: Gal6P(b1-4)GlcNAc
# How it was run: as §1
# [8] = target: Gal6S(b1-3)GlcNAc
# How it was run: as §1
# [9] = target: Gal6S(b1-3)GlcNAc6S
# How it was run: as §1
# [10] = target: Gal6S(b1-4)Glc
# How it was run: as §1
# [11] = target: Gal6S(b1-4)Glc6S
# How it was run: as §1
# [12] = target: Gal6S(b1-4)GlcNAc
# How it was run: as §1
# [13] = target: Gal6S(b1-4)GlcNAc6S
# How it was run: as §1
# [14] = target: GalNAc(a1-3)Gal
# How it was run: as §1
# [15] = target: GalNAc(a1-3)GalNAc
# How it was run: as §1
# [16] = target: GalNAc(a1-3)GalNAc(a1-3)Gal(a1-4)Gal(b1-4)GlcNAc
# How it was run: as §1
# [17] = target: GalNAc(a1-3)GalNAc(b1-3)Gal(a1-4)Gal(b1-4)Glc
# How it was run: as §1
# [18] = target: GalNAc(a1-3)GalNAc(b1-3)Gal(a1-4)Gal(b1-4)GlcNAc
# How it was run: as §1
# [19] = target: GalNAc(b1-3)Gal
# How it was run: as §1
# [20] = target: GalNAc(b1-3)Gal(a1-4)Gal(b1-4)GlcNAc
# How it was run: as §1
# [21] = target: GalNAc(b1-3)Gal(a1-4)Gal(b1-4)GlcNAc(b1-3)Gal(b1-4)Glc
# How it was run: as §1
# [22] = target: GalNAc(b1-3)Gal(a1-6)Gal(b1-4)Glc
# How it was run: as §1
# [23] = target: GalNAc(b1-3)GalNAc
# How it was run: as §1
# [24] = target: GalNAc(b1-3)GlcNAc
# How it was run: as §1
# [25] = target: GalNAc(b1-4)Gal(b1-4)Glc
# How it was run: as §1
# [26] = target: GalNAc(b1-4)GlcNAc
# How it was run: as §1
# [27] = target: GalNAc(b1-4)GlcNAc(b1-2)Man
# How it was run: as §1
# [28] = target: GalNAc(b1-4)GlcNAc(b1-2)Man(a1-3)[GalNAc(b1-4)GlcNAc(b1-2)Man(a1-6)]Man(b1-4)GlcNAc(b1-4)GlcNAc
# How it was run: as §1
# [29] = target: GalNAc(b1-4)GlcNAc(b1-3)GalNAc(b1-4)GlcNAc
# How it was run: as §1
# [30] = target: GalNAc(b1-4)GlcNAc6S
# How it was run: as §1
# [31] = target: GalNAc(b1-6)GalNAc
# How it was run: as §1
# [32] = target: GalNAc3S(b1-4)GlcNAc
# How it was run: as §1
# [33] = target: GalNAc3S(b1-4)GlcNAc3S
# How it was run: as §1
# [34] = target: GalNAc3S(b1-4)[Fuc(a1-3)]GlcNAc
# How it was run: as §1
# [35] = target: GalNAc4S6S(b1-4)GlcNAc
# How it was run: as §1
# [36] = target: GalNAc6S(b1-4)GlcNAc
# How it was run: as §1
# [37] = target: Glc(a1-4)Glc
# How it was run: as §1
# [38] = target: Glc(a1-4)Glc(a1-4)Glc(a1-4)Glc
# How it was run: as §1
binder,measurement,setting,value
B1,glycan array binding signal (z-score),[1],-0.274
same,glycan array binding signal (z-score),[2],-0.299
same,glycan array binding signal (z-score),[3],-0.291
same,glycan array binding signal (z-score),[4],-0.295
same,glycan array binding signal (z-score),[5],-0.299
same,glycan array binding signal (z-score),[6],-0.297
same,glycan array binding signal (z-score),[7],-0.266
same,glycan array binding signal (z-score),[8],-0.292
same,glycan array binding signal (z-score),[9],-0.286
same,glycan array binding signal (z-score),[10],-0.298
same,glycan array binding signal (z-score),[11],-0.302
same,glycan array binding signal (z-score),[12],-0.295
same,glycan array binding signal (z-score),[13],-0.297
same,glycan array binding signal (z-score),[14],-0.299
same,glycan array binding signal (z-score),[15],-0.3
same,glycan array binding signal (z-score),[16],-0.348
same,glycan array binding signal (z-score),[17],-0.303
same,glycan array binding signal (z-score),[18],-0.273
same,glycan array binding signal (z-score),[19],-0.291
same,glycan array binding signal (z-score),[20],-0.265
same,glycan array binding signal (z-score),[21],-0.279
same,glycan array binding signal (z-score),[22],-0.302
same,glycan array binding signal (z-score),[23],2.23
same,glycan array binding signal (z-score),[24],-0.268
same,glycan array binding signal (z-score),[25],-0.291
same,glycan array binding signal (z-score),[26],-0.128
same,glycan array binding signal (z-score),[27],-0.241
same,glycan array binding signal (z-score),[28],-0.276
same,glycan array binding signal (z-score),[29],-0.221
same,glycan array binding signal (z-score),[30],-0.271
same,glycan array binding signal (z-score),[31],-0.273
same,glycan array binding signal (z-score),[32],-0.275
same,glycan array binding signal (z-score),[33],-0.273
same,glycan array binding signal (z-score),[34],-0.277
same,glycan array binding signal (z-score),[35],-0.272
same,glycan array binding signal (z-score),[36],-0.276
same,glycan array binding signal (z-score),[37],-0.297
same,glycan array binding signal (z-score),[38],-0.302
